# Measurements reported in publication PMC5892938.
# Some of the results follow. At the low end of the ranking the order means little.
# Target: GST-SBP-SLBP (stem-loop binding protein) (UniProt Q14493)
# Assay: targeted RNA Bind-n-Seq;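 note: DESeq read counts versus GST-SBP nonspecific binding control pulldown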
# Details: RBNS binding buffer: 25 mM Tris pH 7.5, 150 mM KCl, 3 mM MgCl2, 0.1% Tween, 0.5 mg/mL BSA, 1 mM DTT; 27 nM protein, 750 pM RNA pool; temperature not stated; high values mean tight binding
row,Sequence,binding signal (log2 fold change)
1,GGUCACGUCUCAAUCAACUCAGUUCCAGGAGUUUCCUCCUGCUUUCUCAACAGCUCGCAGUCAAG,0.0634
2,GGUCACGUCUCAAUCAACUCUUUCUCAGGAGUUUACUCCUGUUAUUUCAACAGCUCGCAGUCAAG,0.016
3,GGUCACGUCUCAAUCAACUCUAUUCCAGGAGUUUACUCCUGUUAUUUCAACAGCUCGCAGUCAAG,-0.375
4,GGUCACGUCUCAAUCAACUCAUUUCCAGGAGUUUCCUCCUGUUUACUCAACAGCUCGCAGUCAAG,0.0473
5,GGUCACGUCUCAAUCAACUCUAUUCCAGGAGUUUUCUCCUGUAUAUUCAACAGCUCGCAGUCAAG,0.0267
6,GGUCACGUCUCAAUCAACUCAAUUUCCAGGGAAAGCCCUGGCUUAUUCAACAGCUCGCAGUCAAG,-0.294
7,GGUCACGUCUCAAUCAACUCUUUUUCAGGAGUUUUCUCCUGUAUACUCAACAGCUCGCAGUCAAG,0.0533
8,GGUCACGUCUCAAUCAACUCAAUCUCCAGGGAAAACCCUGGCAAAUUCAACAGCUCGCAGUCAAG,-0.293
9,GGUCACGUCUCAAUCAACUCUUCUCCCAGGGAAAUCCCUGGCAAAUUCAACAGCUCGCAGUCAAG,-0.0463
10,GGUCACGUCUCAAUCAACUCACAAGAGGGGGGGAAAACCCCUUUACCCUCAAAUUCAACAGCUCGCAGUCAAG,-0.178
11,GGUCACGUCUCAAUCAACUCAAUCUCCAGGGAAAGCCCUGGCAUUCUCAACAGCUCGCAGUCAAG,0.139
12,GGUCACGUCUCAAUCAACUCUACAGAGGGGGGGAAAACCCCUUUUCCCUCAAAAUCAACAGCUCGCAGUCAAG,-0.532
13,GGUCACGUCUCAAUCAACUCAAUCCCCAGGGAAAGCCCUGGCUAAUUCAACAGCUCGCAGUCAAG,-0.197
14,GGUCACGUCUCAAUCAACUCCACUGAGGGGGGGAAAACCCCUUUACCCUCCAAUUCAACAGCUCGCAGUCAAG,-0.407
15,GGUCACGUCUCAAUCAACUCUUCUCCCAGGGAAAGCCCUGGCUUUUUCAACAGCUCGCAGUCAAG,0.00677
16,GGUCACGUCUCAAUCAACUCUUCGCCCAGGGAAACCCCUGGUUUUUUCAACAGCUCGCAGUCAAG,-0.171
17,GGUCACGUCUCAAUCAACUCAUUCCCCAGGGAAAGCCCUGGUUAACUCAACAGCUCGCAGUCAAG,-0.116
18,GGUCACGUCUCAAUCAACUCUUCGUCCAGGGAAACCCCUGGUUUUCUCAACAGCUCGCAGUCAAG,0.36
19,GGUCACGUCUCAAUCAACUCAUCGUCAGGAGUUUACUCCUGUAAUCUCAACAGCUCGCAGUCAAG,0.238
20,GGUCACGUCUCAAUCAACUCUAUCUCCAGGGAAACCCCUGGCUUUUUCAACAGCUCGCAGUCAAG,-0.0484
21,GGUCACGUCUCAAUCAACUCAUCCUCAGGAGUUUUCUCCUGCUAUGUCAACAGCUCGCAGUCAAG,0.0569
22,GGUCACGUCUCAAUCAACUCAUUUCCAGGAGUUUACUCCUGCUUACUCAACAGCUCGCAGUCAAG,-0.181
23,GGUCACGUCUCAAUCAACUCAUCCCCAGGAGUUUACUCCUGCUAAUUCAACAGCUCGCAGUCAAG,0.136
24,GGUCACGUCUCAAUCAACUCAUUAGAGGGGGGGAAAACCCCUUUACCCUCAAACUCAACAGCUCGCAGUCAAG,-0.427

row,Sequence,binding signal (log2 fold change)
1,GGUCACGUCUCAAUCAACUCUAUCCCCAGGGAAAACCCUGGUAUAUUCAACAGCUCGCAGUCAAG,-0.312
2,GGUCACGUCUCAAUCAACUCUAUAGAGGGGGGGAAAACCCCUUUGCCCUCAAUCUCAACAGCUCGCAGUCAAG,-0.403
3,GGUCACGUCUCAAUCAACUCUAUUUCAGGAGUUUACUCCUGCUUUUUCAACAGCUCGCAGUCAAG,0.0737
4,GGUCACGUCUCAAUCAACUCAUCAGAGGGGGGGAAAACCCCUUUGCCCUCAAAAUCAACAGCUCGCAGUCAAG,-0.0103
5,GGUCACGUCUCAAUCAACUCAAUUUCCAGGGAAAGCCCUGGUAUACUCAACAGCUCGCAGUCAAG,0.343
6,GGUCACGUCUCAAUCAACUCUUCGUCAGGAGUUUCCUCCUGUUAAUUCAACAGCUCGCAGUCAAG,0.0278
7,GGUCACGUCUCAAUCAACUCAAUCUCCAGGGAAAACCCUGGUAUACUCAACAGCUCGCAGUCAAG,0.131
8,GGUCACGUCUCAAUCAACUCAAAAGAGGGGGGGAAAACCCCUUUACCCUCCGUUUCAACAGCUCGCAGUCAAG,-0.372
9,GGUCACGUCUCAAUCAACUCAAACGAGGGGGGGAAAACCCCUUUACCCUCAAUGUCAACAGCUCGCAGUCAAG,-0.228
10,GGUCACGUCUCAAUCAACUCAUUUUCCAGGGAAAACCCUGGCAUUUUCAACAGCUCGCAGUCAAG,-0.128
11,GGUCACGUCUCAAUCAACUCAAUUCCCAGGGAAAUCCCUGGCUAACUCAACAGCUCGCAGUCAAG,-0.0882
12,GGUCACGUCUCAAUCAACUCAGUCCCAGGAGUUUGCUCCUGCUUUUUCAACAGCUCGCAGUCAAG,0.0623
13,GGUCACGUCUCAAUCAACUCUUUCGAGGGGGGGAAAACCCCUUUACCCUCAUUUUCAACAGCUCGCAGUCAAG,-0.381
14,GGUCACGUCUCAAUCAACUCUUAAGAGGGGGGGAAAACCCCUUUACCCUCCGUAUCAACAGCUCGCAGUCAAG,-0.283
15,GGUCACGUCUCAAUCAACUCCCUAGAGGGGGGGAAAACCCCUUUGCCCUCAAACUCAACAGCUCGCAGUCAAG,-0.128
16,GGUCACGUCUCAAUCAACUCUACUUCCAGGGAAAACCCUGGUUAUCUCAACAGCUCGCAGUCAAG,-0.0077
17,GGUCACGUCUCAAUCAACUCUUUUUCAGGAGUUUUCUCCUGCUUUUUCAACAGCUCGCAGUCAAG,-0.0682
18,GGUCACGUCUCAAUCAACUCAUUCUCCAGGGAAAUCCCUGGUAUUCUCAACAGCUCGCAGUCAAG,0.218
19,GGUCACGUCUCAAUCAACUCAGUUCCCAGGGAAAGCCCUGGCAUAUUCAACAGCUCGCAGUCAAG,0.0778
20,GGUCACGUCUCAAUCAACUCUUUAGAGGGGGGGAAAACCCCUUUACCCUCCGUUUCAACAGCUCGCAGUCAAG,-0.144
21,GGUCACGUCUCAAUCAACUCCAAAGAGGGGGGGAAAACCCCUUUACCCUCACUUUCAACAGCUCGCAGUCAAG,0.398
22,GGUCACGUCUCAAUCAACUCUUUUCCAGGAGUUUACUCCUGCUAUUUCAACAGCUCGCAGUCAAG,-0.167
23,GGUCACGUCUCAAUCAACUCUACAGAGGGGGGGAAAACCCCUUUACCCUCAACCUCAACAGCUCGCAGUCAAG,-0.464
